Assay results from PubChem BioAssay AID651820 (National Center for Advancing Translational Sciences (NCATS), 2012).
Out of some 340,000 compounds screened, about 12,000 (3.5%) were called active. This list was built around the results that the source calls inconclusive (neither active nor inactive); the mix of calls is not that of the screen. The call rests on the fitted dose curve; in most records, active means well fitted inhibition curve with a large enough effect; inconclusive means small, poorly fitted or top-dose-only effect, or another doubt; inactive means no such curve, though single readings can be large or run the other way. Potencies of inconclusive entries are left out as doubtful fits.

Test: qHTS Assay for Inhibitors of Hepatitis C Virus (HCV)
Details: Huh7.5.1 HCVcc-Cre (HCVcc is cell-culture hepatitis C virus) infection, luciferase reporter, 44 h; activity change, negative = inhibition: at 41.8 µM (top of the series) unless noted
Method in brief: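 Luciferase read-out (15 sec integration) after a 15 min room-temperature substrate step quantifies HCVcc-Cre infection. Cells, 1,000 per well, had compound added 4 h post-plating, then virus at ~0.5 moi, and were cultured 44 h.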
On the % scale 0 is the no-effect control and ±100 the full control effect; potency means the concentration at half of the fitted maximal effect; tags describe the fitted curve by direction and shape.

SMILES	Potency	activity change, negative = inhibition
Cc1cc(C(=O)CSc2nc3ccccc3c(=O)[nH]2)c(C)n1C	inconclusive [inhibitor, single point]	
CCCCCNc1nc(NCCCO)c(C#N)c2c1CN(C)CC2	inconclusive [inhibitor, single point]	
Cc1ccc(S(=O)(=O)CCC(=O)OCC(=O)NNC(=O)c2ccc([N+](=O)[O-])cc2)cc1		inactive: 6.6%
CC(C)Cc1nc2oc3c(NCC4CCCO4)ncnc3c2c2c1CCC2 (centres undefined)	active: 14.1 µM	
Cn1c(CC(=O)Nc2ccccc2)nnc1SCC(=O)c1ccccc1	inconclusive [inhibitor, single point]	
O=C(NC(Cc1c[nH]c2ccccc12)c1nnc2n1CCCCC2)c1ccccc1 (centres undefined)	inconclusive [inhibitor, single point]	
Cc1ccc(C(=O)Nc2ccncc2)cc1[N+](=O)[O-]		inactive: -21.5%
Cc1ccc(NC(=O)Cn2ccc(=O)[nH]c2=O)cc1		inactive: 8.31%
Cc1sc(NC(=O)c2oc3ccccc3c2C)c(C#N)c1C	inconclusive [inhibitor, single point]	
O=c1[nH]c(NCc2ccco2)nnc1Cc1ccccc1Cl		inactive: 7.77%
Cc1ccc(CCNC(=O)CCS(=O)(=O)Cc2ccc(C)cc2)cc1		inactive: 6.82%
Cc1ccccc1-n1c(-c2csc(C)c2C)n[nH]c1=S		inactive: 2.82%
CC(C)(C)C(=O)Cn1c(=N)n(Cc2ccccc2Cl)c2ccccc21		inactive: -19.8%
CCN1CCc2nc3ccccc3c(C(=O)Nc3ccc(C#N)cc3)c2C1		inactive: -8.09%
COc1ccc(S(=O)(=O)N(C)c2ccc(C(=O)N3CCN(c4ccccc4)CC3)cc2)cc1OC	inconclusive [inhibitor, partial curve]	
Cc1c(Cc2ccccc2)c(=O)oc2cc(OCC(=O)c3ccccc3)ccc12	inconclusive [inhibitor, single point]	
O=[N+]([O-])c1ccc(Oc2ccc(S(=O)(=O)N3CCCCC3)cc2)cc1	inconclusive [inhibitor, partial curve]	
NS(=O)(=O)c1ccc(NCc2cc(Cl)ccc2OCc2ccccc2F)cc1	inconclusive [inhibitor, single point]	
O=C(Nc1nccs1)NC1CCCCC1		inactive: 15.1%
O=C(NCCC1=CCCCC1)c1ccc(CN2CCOCC2)cc1		inactive: 4.97%
COc1ccc2[nH]c3c(c2c1)CCN1C(=O)N([C@@H](C)C(=O)NC2CC2)C(=O)[C@]31C	inconclusive [inhibitor, full curve]	
COC(=O)c1ccc(S(=O)(=O)N2Cc3ccccc3C2)cc1	inconclusive [inhibitor, single point]	
O=C(N/N=C/c1c[nH]c2ccccc12)C1COc2ccccc2O1 (centres undefined)	inconclusive [inhibitor, partial curve, poor fit]	
CCOC(=O)N1C(=O)C2(CCCCC2)N(c2ccccc2Cl)C1=S	inconclusive [inhibitor, single point]	
O=C(CCCSc1nc2ccccc2[nH]1)N1CCN(c2ccccc2)CC1	inconclusive [inhibitor, single point]	

SMILES	Potency	activity change, negative = inhibition
Cc1ccc(-c2cc(-c3ccccc3C)[nH]n2)c(O)c1	inconclusive [inhibitor, single point]	
CCOc1ccc(S(=O)(=O)Nc2cccc(C(=O)N(C)CC(=O)Nc3ccc(OC)cc3)c2)cc1	inconclusive [inhibitor, full curve]	
CCn1c2ccccc2c2cc(NC(=O)C(C)Oc3ccc(OC)cc3)ccc21 (centres undefined)	inconclusive [inhibitor, single point]	
Cc1nc2ccccc2c(N)c1C(=O)/C=C/c1ccccc1	active: 11.2 µM	
OC(CSc1ccc(F)cc1)CN1CCN(c2ccccc2)CC1 (centres undefined)		inactive: 11.4%
COc1ccc(OC)c(N2CC(O)=C(c3nc4ccccc4s3)C2=N)c1	active: 25.1 µM	
COc1ccc(NC(=O)CC2C(=O)N(C)C(=S)N2CCc2ccccc2)cc1 (centres undefined)	inconclusive [inhibitor, single point]	
CCCOc1ccc(CNC(=O)c2ccc3nc(N4CCOCC4)sc3c2)cc1		inactive: -8.75%
O=C(Cc1coc2cc3c(cc12)CCC3)OCC(=O)N1CCCC1=O		inactive: 5.98%
Cc1ccc(/C=N/n2cnc3sc(-c4ccccc4)cc3c2=O)o1		inactive: -25.5%
Cc1ccsc1/C=N/NC(=O)c1ccc2nc[nH]c2c1		inactive: 7.66%
COc1cc(C(=O)/C=C/c2cccnc2)ccc1O		inactive: 6.51%
COc1cccc(N2CCN(C(=O)C3CCCN(S(=O)(=O)c4ccc5c(c4)oc(=O)n5C)C3)CC2)c1 (centres undefined)	active: 12.6 µM	
CC1CN(S(=O)(=O)c2cccc(C(=O)Nc3ccccc3N3CCCCC3)c2)CC(C)O1 (centres undefined)	inconclusive [inhibitor, single point]	
COc1cccc(-c2cc(C(=O)NCc3cccs3)no2)c1	inconclusive [inhibitor, single point]	
C=CCn1c(COc2ccccc2)nnc1SCC(=O)Nc1ccc2c(c1)OCCO2		inactive: 6.91%
COCC(=O)N(C)c1nnc(-c2ccccn2)s1		inactive: 10.7%
CCOC(=O)c1ccccc1NC(=O)c1ccccc1NS(C)(=O)=O	inconclusive [inhibitor, partial curve]	
Cc1cc(C)c2c(c1)SC1=NC(c3ccccc3)(C(F)(F)F)NC(=O)N12 (centres undefined)		inactive: 1.15%
COc1ccc(Nc2nc(S(=O)(=O)c3ccc(C)cc3)c(Cl)s2)cc1	inconclusive [inhibitor, partial curve]	
C(=N/Nc1cc(N2CCOCC2)nc(N2CCOCC2)n1)/c1ccccc1	inconclusive [inhibitor, partial curve]	
COc1ccc(CCNC(=O)Cn2nc(C)c3c(C)n(-c4ccccc4)nc3c2=O)c(OC)c1	inconclusive [inhibitor, single point]	
CCOn1c(=O)c(-c2ccccc2)[n+]([O-])c2ccccc21		inactive: 4.59%
CCN(CC)CCN(C(=O)/C=C/c1cccs1)c1nc2ccc(Cl)cc2s1	inconclusive [inhibitor, partial curve]	
